Data as given in PubChem BioAssay AID485344 (National Center for Advancing Translational Sciences (NCATS), 2010).
About 6,900 (2%) of roughly 340,000 compounds were called active. Rule as the data show it: active = inhibition above about 30%; inactive = below that, where a call was filed. The entries are a selection whose mix differs from that of the whole data set. Where no call is shown, the source filed none.
Also: 0% is about no effect.

Each compound was assayed against D(2) dopamine receptor (Homo sapiens) (UniProt P14416) (assay: HTS Assay for Allosteric Antagonists of the Human D2 Dopamine Receptor: Primary Screen for Antagonists). Conditions: HEK293 TREx D2 cells, calcium flux, dopamine EC80; at 10 µM; stronger effect = higher value.
Chain of UniProt P14416 (P14416 whole entry, looked up): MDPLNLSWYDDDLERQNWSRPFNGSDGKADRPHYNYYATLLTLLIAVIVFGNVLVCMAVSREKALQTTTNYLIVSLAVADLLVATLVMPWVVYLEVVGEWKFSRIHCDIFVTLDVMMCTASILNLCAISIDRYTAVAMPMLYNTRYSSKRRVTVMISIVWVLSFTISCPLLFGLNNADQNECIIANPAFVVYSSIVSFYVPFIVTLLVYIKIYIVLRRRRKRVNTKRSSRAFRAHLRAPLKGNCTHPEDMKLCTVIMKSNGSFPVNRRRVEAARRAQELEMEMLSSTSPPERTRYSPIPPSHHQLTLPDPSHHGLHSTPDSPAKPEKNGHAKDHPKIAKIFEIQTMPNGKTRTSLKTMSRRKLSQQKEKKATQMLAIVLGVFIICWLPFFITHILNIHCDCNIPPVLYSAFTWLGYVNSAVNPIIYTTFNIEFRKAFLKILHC
Summary of the method: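 In this primary screen, negative modulation is detected by tracking calcium flux after an EC80 dopamine challenge in inducible HEK293 T-REx D2 cells preexposed to test compound for 180 s.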
For `Cc1ccc(C(=O)Nc2ccc(-c3nc4ccccc4s3)cc2C)cc1C`, the inhibition was -23.4%.
`COc1ccc(N2CC(NC(=O)CCCc3ccccc3)CC2=O)cc1` (configuration not stated) gave an inhibition of -21.9%.
With `CCOc1cc(CNC(=O)NC2COc3ccc(OC)cc3C2)cc(OCC)c1OCC` (configuration not stated) the inhibition was -4.28%.
Work on `COC(=O)c1ccccc1NC(=O)Nc1nnc(N2CCC(C)CC2)s1` yielded an inhibition of 6.94%.
With `CCOC(=O)c1cc(C)n(CC2CCC(C(=O)Nc3ccc(C)c(F)c3)CC2)c1C` (configuration not stated) the inhibition was -10.1%.
For `CN(C)CCCN1c2ccccc2CCc2ccc(Cl)cc21`, the inhibition was active: 89.1%.
`c1ccc2cc3[nH]c(CN4CCCCC4)nc3cc2c1` was tested, and the inhibition was active: 58.4%.
`O=C(COC(=O)c1ccc(O)cc1)Nc1ccccc1[N+](=O)[O-]` was tested, and the inhibition was active: 38.5%.
`O=C(Cn1c(=O)n(-c2ccccc2Cl)c(=O)c2sc3ccccc3c21)NC1CCCCC1` gave an inhibition of -16.2%.
`Cc1ccc(CN2CCN(CC(=O)Nc3ccc(C)c(C)c3)S2(=O)=O)cc1` was tested, and the inhibition was 5.64%.
`Cc1ccccc1-n1nc(CO)c(C(=O)NCc2cccs2)n1` showed an inhibition of -9.43%.
With `O=C(CCN1CCN(c2ccccc2)CC1)Nc1cccc(Br)c1` the inhibition was active: 75.2%.
With `Cc1ccccc1OC(=O)CSc1nnc(-c2ccc(F)cc2)o1` the inhibition was 14.6%.
In the case of `Cc1c(NC(=O)c2nc3ccccc3nc2N2CCCCC2)cccc1[N+](=O)[O-]`, the inhibition is reported as -17.1%.
In the case of `Cc1cccc2c1-c1sc(C(=O)N(C)c3cccc(C(F)(F)F)c3)cc1CO2`, the inhibition is reported as -5.12%.
Work on `Cc1csc2nc(COc3ccccc3NC(=O)c3ccc(C(C)(C)C)cc3)cc(=O)n12` yielded an inhibition of 5.01%.
For `Cc1cccc(CNC(=O)CCCn2c(=O)c3cccn3c3ccc(F)cc32)c1`, the inhibition was -10.1%.
In the case of `CCNC(=O)c1nn(-c2ccccc2C)nc1CO`, the inhibition is reported as -4.86%.
In the case of `CC(=O)C1=C(c2ccc(C)c(C)c2)N(C(C)=O)n2c(nnc2-c2ccc(Cl)cc2)S1`, the inhibition is reported as -12.3%.
With `Cc1cc(C(=O)NC2CCCCC2)c2cc(F)ccc2n1` the inhibition was active: 31.5%.
With `CCC(=O)C1=C(c2cccc(OC)c2)N(C(=O)CC)n2c(nnc2C2CCCCC2)S1` the inhibition was -23%.
In the case of `Cc1cccc(C)c1OCc1nc2c3c(-c4ccccc4)c(-c4ccccc4)oc3ncn2n1`, the inhibition is reported as -6.54%.
`COc1cccc(NC(=O)C2CCN(c3nn4cc(-c5ccc(F)cc5)nc4s3)CC2)c1` showed an inhibition of -11.3%.
Compound `CCn1cc(C(=O)N2CCN(c3ccc(C(C)=O)cc3)CC2)c2cc(OC)c(OC)cc2c1=O` has an inhibition of -13.4%.
In the case of `Cc1ccc(NC(=O)Cn2c(=O)oc3cc(S(=O)(=O)NCc4ccccc4)ccc32)cc1`, the inhibition is reported as 5.03%.
With `Cc1cccc(CN2CCc3c([nH]c4ccccc34)C2)c1` the inhibition was active: 56.2%.
Compound `Cc1ccc(-c2cc(C(F)(F)F)c(C#N)c(SCC(=O)Nc3ccccc3)n2)cc1` has an inhibition of 0.675%.
Compound `CCOC(=O)C1CCN(C(=O)c2ccc3c(=O)n4nc(Nc5cc(C)ccc5C)sc4nc3c2)CC1` has an inhibition of -14.6%.
`Cc1ccc(CNC(=O)c2cc3c(=O)n(Cc4cccnc4)ccc3nc2C)cc1` showed an inhibition of -2.62%.
`CCOc1cccc(C2c3c(-c4cc(C)ccc4O)n[nH]c3C(=O)N2Cc2ccco2)c1` (configuration not stated) gave an inhibition of 17.6%.
For `CCC(C)[C@H]1COCCS(=O)(=O)N1Cc1ccc(C)cc1` (some centres not stated), the inhibition was active: 36.6%.
For `COc1ccc(OC)c(CCNC(=O)c2csc3c2CCCCC3)c1`, the inhibition was 7.6%.
With `Cc1cc(C)cc(NC(=O)CN2C(=O)c3ccccc3Sc3ncccc32)c1` the inhibition was 16.2%.
For `CN1C(C(=O)Nc2ccc(F)cc2F)=CC(c2ccc3c(c2)OCO3)=NS1(=O)=O`, the inhibition was 6.42%.
For `Cc1cc2nc(-c3ccc(NC(=O)C(C)C)cc3)oc2cc1C`, the inhibition was active: 31.7%.
`CCCCN(CC)CCCNC(=O)c1cc2c(=O)[nH]c3ccccc3c2s1` showed an inhibition of -8.01%.
With `Cc1ccc(CN(Cc2ccco2)C(=O)COc2ccc(C(C)C)cc2)cc1` the inhibition was 11.1%.
With `COc1ccc(CNC(=O)c2ccc3c(c2)nc2n3CCOC2)c(OC)c1` the inhibition was -0.94%.
For `CCOc1ccc(CCNC(=O)CN2N=C(c3ccccc3)CCC2=O)cc1OCC`, the inhibition was 3.53%.
In the case of `Cc1ccc2nc(N(Cc3cccnc3)C(=O)CCS(=O)(=O)c3ccccc3)sc2c1`, the inhibition is reported as -20.5%.
With `CC(=O)c1ccc(NC(=O)CSc2nc(-c3cccc(F)c3)nc3c2c(=O)n(C)c(=O)n3C)cc1` the inhibition was 1.85%.
`CCN1CCN(P2(=O)C=C(c3ccccc3)OC(c3ccccc3)=C2)CC1` was tested, and the inhibition was active: 84.1%.
`COc1cc2[nH]c(=O)n(CCCC(=O)N3CCN(c4cccc(C(F)(F)F)c4)CC3)c(=O)c2cc1OC` showed an inhibition of -6.76%.
`COc1ccccc1N1CCN(C(=O)CN2C(=O)COc3ccc(S(=O)(=O)N4CCC(C)CC4)cc32)CC1` showed an inhibition of -2.51%.
In the case of `Cc1ccc(NC(=O)C2CCN(c3cc(C)nc4c(-c5ccc(Cl)cc5)c(C)nn34)CC2)c(C)c1`, the inhibition is reported as 6.63%.
Compound `COc1ccc(C(=O)CSc2c(C(C)C)cnc3c2c(=O)n(C)c(=O)n3C)cc1` has an inhibition of -2.37%.
In the case of `CCOc1ccc(NC(=O)CSc2nc3c(oc4ccccc43)c(=O)n2CCOC)cc1`, the inhibition is reported as -2.7%.
With `Cn1ncc2nc(SCC(=O)Nc3ccc(Br)cc3F)n(Cc3ccccc3)c(=O)c21` the inhibition was 3.22%.
`Cc1ccn2c(=O)cc(COc3ccc(NC(=O)c4ccccc4F)cc3)nc2c1` showed an inhibition of -1.86%.
`Cc1ccc(-n2nnc(C(=O)Nc3cc(F)ccc3F)c2C)cc1F` gave an inhibition of 13%.
`Cc1ccc(C)c(OCC(=O)NNC(=O)CCN2CCN(c3ccccc3)CC2)c1` was tested, and the inhibition was active: 80%.
`O=C(c1ccccc1)N1c2ncnn2C2(CCCCC2)[C@@H]2CCCC[C@@H]21` was tested, and the inhibition was 19.5%.
In the case of `COc1ccccc1NC(=O)c1sc2nc3c(cc2c1N)CCCCCC3`, the inhibition is reported as 16.1%.
With `Cc1ccc2c(c1)C(c1ccc(F)cc1)N(C(=O)c1ccc(OC(C)C)cc1)CC(=O)N2` (configuration not stated) the inhibition was -2.03%.
`Cc1ccccc1C(=O)Nc1cc(-c2ccc(Cl)cc2)nn1-c1ccccc1` gave an inhibition of -10.6%.
`Cc1nn(-c2ccc(N3CCOCC3)nn2)c(C)c1CCC(=O)NCc1ccc(F)cc1` was tested, and the inhibition was 14.2%.
`Cc1ccc2oc3c(c(=O)c2c1)C1(C(=O)N(C)c2ccccc21)N(CCCO)C3=O` (configuration not stated) showed an inhibition of -2.59%.
`CSc1cccc(NC(=O)C2CCN(C(=O)c3cnn(-c4ccccc4)c3-n3cccc3)CC2)c1` showed an inhibition of -3.52%.
In the case of `CCc1ccc(-n2c(=O)c3c4c(sc3n(CC(=O)c3ccc(Cl)cc3)c2=O)CCC4)cc1`, the inhibition is reported as -8.73%.
In the case of `COc1ccc2oc(-c3ccc(C)c(NC(=O)COc4cc(C)cc(C)c4)c3)nc2c1`, the inhibition is reported as 8.75%.
Work on `Cc1ccc(Cl)cc1NC(=O)C(=O)NCC(c1cccnc1)N1CCc2ccccc21` (configuration not stated) yielded an inhibition of -4.66%.
Compound `O=C(CCS(=O)(=O)c1cccc2nsnc12)Nc1ccc(F)cc1` has an inhibition of 6.32%.
With `O=C(Nc1ccn(-c2ccccc2)n1)c1ccc(Cl)cc1` the inhibition was active: 63.3%.
For `Cc1ccc(NC(=O)C(Cc2c[nH]c3ccccc23)NC(=O)OCC(C)C)cc1` (configuration not stated), the inhibition was 6.95%.
For `COc1cc(NC(=O)c2nc(-c3ccncc3)no2)cc(OC)c1OC`, the inhibition was -6.76%.
With `COc1ccc(/C=C\C(=O)NC2CC(=O)N(c3ccccc3)C2)cc1OC` (configuration not stated) the inhibition was -18.8%.
Work on `COC(=O)c1nc2n(n1)C(c1cc(OC)ccc1OC)C(C(=O)Nc1ccc(C)cc1C)=C(C)N2` (configuration not stated) yielded an inhibition of 6.85%.
With `Cc1ccc(CN(C(=O)COc2c(C)cccc2C)C2CCS(=O)(=O)C2)o1` (configuration not stated) the inhibition was 1.07%.
`CC(C)(C)C(=O)NCCc1csc2nc(-c3ccc(F)cc3)nn12` gave an inhibition of -5.13%.
`Cc1ccc(Cl)cc1N1CCN(CCNC(=O)Nc2ccccc2Cl)CC1` gave an inhibition of 0.336%.
`COc1ccc2nc(NC(=O)c3nc(S(=O)(=O)Cc4cccc(C)c4)ncc3Cl)sc2c1` was tested, and the inhibition was -3.81%.
With `COc1ccc(NC(=O)c2cnc(SC)nc2C)c(OC)c1` the inhibition was active: 37.8%.
In the case of `CCC1CCCCN1CCCNC(=O)CN1C(=O)CSc2ccc(S(=O)(=O)N3CCOCC3)cc21` (configuration not stated), the inhibition is reported as 17.7%.
In the case of `CCC(C)(C)NC(=O)C(c1cccn1C)N(C(=O)Cn1nnc2ccccc21)c1ccc(OC)cc1OC` (configuration not stated), the inhibition is reported as active: 30.5%.
`CCOc1ccccc1NC(=O)Cn1ccn(Cc2ccc(C)cc2)c(=O)c1=O` was tested, and the inhibition was 25.5%.
`CCOC(=O)Cn1nc(C)c(NC(=O)COc2ccc(Cl)cc2C)c1C` gave an inhibition of -1.41%.
Work on `Cc1ccc(-c2cc(C(=O)Oc3ccccc3)c3cc(C)ccc3n2)cc1` yielded an inhibition of 2.34%.
`COc1ccc2c(c1)c1c(c(=O)n(-c3cccc(Cl)c3)c(=O)n1CC(=O)N1CCCC1)n2C` showed an inhibition of -10.1%.
With `COc1ccc(CCNC(=O)NC2CCCCC2)cc1` the inhibition was active: 30.8%.
With `COCCCNC(=O)CSc1nc2c(sc3ccccc32)c(=O)n1CCCC(=O)NCCOC` the inhibition was 8.83%.
`Fc1ccccc1Cn1c(-c2ccccc2)nc2ccccc21` gave an inhibition of 11%.
For `O=C(c1cccs1)N1CCN(Cc2ccc3c(c2)OCO3)CC1`, the inhibition was active: 86.6%.
Work on `CC(=O)c1ccc(NC(=O)COCc2cc(-c3ccco3)on2)cc1` yielded an inhibition of -2.05%.
With `COc1cccc(N2CC(NC(=O)c3cccc(OC)c3OC)CC2=O)c1` (configuration not stated) the inhibition was 27.9%.
With `Cc1ccccc1OCc1nnc(SCc2cc(=O)c3cccc(F)c3[nH]2)n1C` the inhibition was -26.1%.
Compound `CCC(C)NC(=O)CSc1nc2c(sc3ccccc32)c(=O)n1Cc1ccccc1Cl` (configuration not stated) has an inhibition of 1.31%.
Work on `Cc1cccc2nc(-c3cccc(NS(=O)(=O)c4ccccc4)c3)cn12` yielded an inhibition of -3.24%.
`Cc1ccc(C)c(CSc2nc3ccncc3n2CC(=O)Nc2ccc(N(C)C)cc2)c1` showed an inhibition of 4.26%.
With `Cc1cc(C)c(NC(=O)Nc2ccc3snnc3c2)c(C)c1` the inhibition was -8.71%.
`Clc1ccccc1CNc1ncnc2c1c(-c1ccccc1)cn2-c1ccccc1` was tested, and the inhibition was -7.55%.
In the case of `Cc1ccc(NC(=O)CSc2nc(-c3ccco3)nc3cc(=O)[nH]n23)cc1C`, the inhibition is reported as 0.683%.
`Cc1ccc(C)c(Cn2c3ccccc3c3cnn(CC(=O)NCc4ccccc4)c(=O)c32)c1` gave an inhibition of -0.21%.
Work on `CC1CCN(c2cc3c(cc2F)c(=O)c(S(=O)(=O)c2ccc(Cl)cc2)cn3C)CC1` yielded an inhibition of 8.16%.
`COc1ccc(Nc2nc3c(S(=O)(=O)c4ccc(Br)cc4)nnn3c3ccsc23)c(OC)c1` showed an inhibition of 1.73%.
For `CCOC(=O)c1c(NC(=O)c2cc(-c3ccc(Cl)cc3)on2)sc2c1CCCC2`, the inhibition was 14.1%.
Work on `CNS(=O)(=O)c1cc(-c2nn3c(C)nnc3c3ccccc23)ccc1C` yielded an inhibition of -10.3%.
`Cc1ccc(CNc2oc(-c3ccc(COc4ccc(Cl)cc4)o3)nc2C#N)cc1` gave an inhibition of 3.05%.
